# The source gives no read counts; variants with many changes may rest on few reads.
# B1: CPEB3 Ribozyme (parent)
# chain: UAACAGGGGGCCACAGCAGAAGCGUUCACGUCGCAGCCCCUGUCAGAUUCUGGUGAAUCUGCGAAUUCUGCUGUAUAUCUC
# Variants of: B1
# Assay: self-cleavage, relative activity (ratio to wild type); higher = more cleavage; in vitro, sequencing
# Method in brief: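 CPEB3 self-cleaving ribozyme mutant libraries were made by rounds of error-prone PCR, barcoded, and transcribed in vitro with T7 RNA polymerase for 5 hours at 37°C. Cleavage occurred during transcription and a 15 min DNase I step before EDTA stop. RNAs were reverse transcribed with template switching and Illumina-sequenced, with DNA sequencing mapping barcodes to variants. Relative activity is the variant's cleaved/total read fraction divided by wild type's (minimum 5 reads), averaged across three batches.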
row,Variant,self-cleavage
1,U69G A77U C81U,0.65
2,U67A U72C C81A,0.85
3,U67C C79U U80A,0.29
4,U67C U74G A75G,0.19
5,U67C A75U U80C,0.34
6,U66G U74A U78A,0.61
7,U72C A75U U80A,1.29
8,U67A U69C U80C,0.28
9,U66C U69A U74C,0.27
10,U69C U74C A75G,0.13
11,U66C U69A A75U U78C,0.3
12,U69C U76C C79G,0.92
13,U69A A77G U80A,0.88
14,U66A U69C G70A,0.2
15,G70U U76C A77C,0.38
16,U72A U76C U80C,1.21
17,U66C A77U U78A,0.35
18,U69A U74G U78A,0.58
19,U69A A75G U80A,0.35
20,C71U U74C U78C,0.97
21,U67C G70C A75C,0.16
22,U74C A75G U78C C81U,1.35
23,U69G A75G U76C,0.46
24,U66A U67C C71G U78C,0.27
25,U66C U69A U80C,0.19
26,U69A U76C A77G,0.73
27,C71U U72C U80C,1.14
28,U69C U72C A77G,0.21
29,U67C C71U U78C,0.43
30,U67C U78C U80C,0.25

# Reference: the RNAGym collection of RNA variant scans (doi:10.1093/nar/gkz1192)
